# Results as given in PubChem BioAssay AID651820 (National Center for Advancing Translational Sciences (NCATS), 2012).
# Where “and” joins values, the source holds several entries; their conditions need not be identical. Equal values may be shown once. In all, about 340,000 compounds went through this assay and about 12,000 (3.5%) were called active. Inconclusive results, whose numbers are uncertain, are shown with a selection of clear calls. The call rests on the fitted dose curve; in most records, active means well fitted inhibition curve with a large enough effect; inconclusive means small, poorly fitted or top-dose-only effect, or another doubt; inactive means no such curve, though single readings can be large or run the other way. A potency beside an inconclusive call is a rough fit, not a confirmed value.
# Assay: qHTS Assay for Inhibitors of Hepatitis C Virus (HCV)
# Conditions: Huh7.5.1 HCVcc-Cre (HCVcc is cell-culture hepatitis C virus) infection, luciferase reporter, 44 h; activity change, negative = inhibition: at 41.8 µM (top of the series) unless noted
# How it was run: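 Compounds are dispensed onto cells plated 4 h earlier at 1,000 per well, with HCVcc-Cre virus (about 0.5 moi) added next. Following 44 h of culture, luminescent signal is measured for 15 sec after 15 min with substrate at room temperature.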
# On the % scale 0 is the no-effect control and ±100 the full control effect; potency means the concentration at half of the fitted maximal effect; tags describe the fitted curve by direction and shape.
SMILES,"activity change, negative = inhibition",Potency
CCOc1ccc(N=C2NC(=O)CS2)cc1,inactive: 12.6%,–
CCOC(=O)c1c(NC(=O)CSc2nc3ccccc3s2)sc(C(C)=O)c1C,–,"inconclusive: 12.6 µM [inhibitor, partial curve]"
CC1CCC(NC(=O)c2ccc(/C=C3\Oc4ccccc4N(C)C3=O)cc2)CC1 (stereo not given),inactive: 9.98%,–
COC(=O)c1[nH]c2cccc(OC)c2c1NC(=O)CN1CC2(C)CC1CC(C)(C)C2 (stereo not given),inactive: -4.48%,–
C=C(C)C(=O)Nc1cccc(C2=NOC3(C2)C[C@@H](C(N)=O)N(C(=O)CC(c2ccccc2)c2ccccc2)C3)c1 (stereo not given in full),inactive: -19.9%,–
COc1cc(/C=N/NC(=O)c2ccc(CN(C)S(=O)(=O)c3ccc(C)cc3)cc2)ccc1O,–,"inconclusive: 12.6 µM [inhibitor, partial curve]"
CCOc1ccccc1-c1nc(-c2ccc(NC(=O)Cc3ccccc3OC)cc2)no1,–,"inactive and inconclusive: 562 nM [inhibitor, full curve, poor fit]"
N#CCC(=O)Nc1ccc(C(=O)OCC(=O)N=c2sccn2Cc2ccccc2Cl)cc1,–,"inconclusive: 7.08 µM [inhibitor, full curve, poor fit]"
CNC(=O)c1c(NC(=O)C2=COCCO2)sc2c1CCN(C(=O)OC)C2,–,"inconclusive: 2.51 µM [inhibitor, full curve, poor fit]"
CC1(C)Cc2cccc(C(=O)Nc3ccncc3)c2O1,–,"inconclusive: 31.6 µM [inhibitor, single point]"
COC(=O)c1ccc(C)c(NS(=O)(=O)c2ccc3c(c2)OCCO3)c1,–,"inconclusive: 2.82 µM [inhibitor, full curve, poor fit]"
Cc1nc2ccccc2c(=O)n1-c1cccnc1,–,"inconclusive: 5.62 µM [inhibitor, single point]"
O=Cc1cn(Cc2cccc(F)c2)c2ccccc12,inactive: 4.76%,–
Brc1ccccc1-c1nnc2sc(-c3ccc4c(c3)OCCO4)nn12,–,"inconclusive: 3.16 µM [inhibitor, partial curve]"
CCN(CC)C(=O)c1cc2sc3ccccc3c2s1,–,"inconclusive: 8.91 µM [inhibitor, partial curve]"
Cc1ccc(C)c(N2CCN(C(=O)CC3Sc4ccccc4NC3=O)CC2)c1 (stereo not given),–,active: 10 µM
CCCCN(C)CC(O)Cn1cc(/C=C/C(=O)c2ccc(C)cc2)c2ccccc21 (stereo not given),–,active: 12.6 µM
Cc1csc(NC(=O)c2cccc(C)c2C)n1,inactive: -11.6%,–
O=c1c2ccccc2c(C=Nc2cccc(S(=O)(=O)NC3=NCCCCC3)c2)c(O)n1Cc1ccccc1,inactive: -23.1%,–
CN(CCNC(=O)c1ccc(CS(=O)(=O)c2c(Cl)cccc2Cl)o1)CCc1ccccc1,inactive: 2.05%,–
O=C1N[C@@H](Cc2ccccc2)C(=O)N2[C@H]3Nc4ccccc4[C@@]3([C@]34C[C@H]5C(=O)N[C@@H](Cc6ccccc6)C(=O)N5[C@H]3Nc3ccccc34)C[C@@H]12,inactive: -23.8%,–
CC(=O)Nc1ccc(S(=O)(=O)Nc2cccc(-c3csc(C)n3)c2)cc1,–,"inconclusive: 7.94 µM [inhibitor, partial curve, poor fit]"
CN(C)c1cccc(C(=O)Nc2nc3ccccc3[nH]2)c1,inactive: -21.5%,–
COc1cc(NC(=O)CN2C(=O)NC(C)(c3ccc4ccccc4c3)C2=O)c(C)cc1[N+](=O)[O-] (stereo not given),–,"inconclusive: 31.6 µM [inhibitor, single point]"

SMILES,"activity change, negative = inhibition",Potency
CON(C)S(=O)(=O)c1ccc2c(c1)N(Cc1ccc(C)cc1)C(=O)C1CCCN21 (stereo not given),inactive: -22.7%,–
COc1cc2[nH]c(=S)nc(NCc3cccc(Cl)c3)c2cc1OC,–,"inconclusive: 22.4 µM [inhibitor, single point]"
Cc1cc(C(=O)NCCN2CCN(c3cccc(Cl)c3)CC2)n(-c2ccccc2)n1,–,"inconclusive: 6.31 µM [inhibitor, partial curve]"
CC(CCc1ccccc1)NC(=O)C1CCN(C(=O)c2sccc2-n2cccc2)CC1 (stereo not given),–,"inconclusive: 14.1 µM [inhibitor, partial curve]"
CCc1ccc2oc(-c3ccc(N)cc3)nc2c1,–,active: 12.6 µM
Cc1occc1-c1nnc(SCC(=O)Nc2ccc(F)cc2)n1Cc1ccccc1,–,"inconclusive: 3.55 µM [inhibitor, partial curve]"
CCOc1cccc(/C=N/NC(=S)NCCN2CCOCC2)c1O,–,"inconclusive: 31.6 µM [inhibitor, single point]"
COc1ccc(NC(=O)c2cc(S(=O)(=O)N3CCOCC3)cs2)cc1,–,"inconclusive: 12.6 µM [inhibitor, single point]"
CC(C)c1csc(CN2CCCC(CNC(=O)c3cccc4ccccc34)C2)n1 (stereo not given),–,"inconclusive: 22.4 µM [inhibitor, single point]"
Cc1c(C)c2c(OCC(=O)NCc3ccccn3)cc3c(c2oc1=O)CCC(C)(C)O3,inactive: -3.64%,–
O=C(COC(=O)c1cnccn1)c1ccc(OC(=O)c2ccccc2)cc1,inactive: 15.8%,–
CCN(CCNC(=O)c1ccc(CSc2nc3ccncc3[nH]2)cc1)c1ccccc1,–,"inconclusive: 31.6 µM [inhibitor, single point]"
CCN1CCN(Cc2ccc(NC(=O)c3ccc(C)c(NC(=O)c4nccnc4N)c3)cc2C(F)(F)F)CC1,–,active: 10 µM
N#CC(OC(=O)c1ccccc1)c1ccccc1 (stereo not given),inactive: 6.38%,–
O=C(CCCN1C(=O)/C(=C\c2ccccc2)SC1=S)Nc1ccc(O)cc1,–,"inconclusive: 31.6 µM [inhibitor, single point]"
CC(C)(C)c1ccc(-c2nnc(SCC(=O)NC3CC3)o2)cc1,inactive: -6.95%,–
COC(=O)C1=C(C)NC(=S)NC1c1ccco1 (stereo not given),inactive: -4.01%,–
CC(=O)N1c2ccc(S(=O)(=O)N3CCC(C(=O)NCc4ccc(N(C)C)cc4)CC3)cc2CC1C (stereo not given),–,"inconclusive: 14.1 µM [inhibitor, partial curve]"
O=C(CN1CCN(S(=O)(=O)c2ccccc2)CC1)Nc1ccccc1C(=O)c1ccccc1,–,"inconclusive: 12.6 µM [inhibitor, single point]"
Cc1ccc(C(C)C)cc1OCC(=O)Nc1ccc(-n2cnnn2)cc1,inactive: -6.73%,–
CCOC(=O)c1oc2ccc(S(=O)(=O)N3CCC(C)CC3)cc2c1C,inactive: 2.49%,–
Oc1c(Br)cc(Br)c2cccnc12,–,"inconclusive: 25.1 µM [inhibitor, single point]"
Cc1cccc(NS(=O)(=O)c2ccc(C(=O)NCC3(N4CCCCC4)CCCCC3)cc2)c1C,–,"inconclusive: 31.6 µM [inhibitor, single point]"
O=C(N/N=C/c1ccncc1)c1ccc(NC(=O)c2cccc(Cl)c2)cc1,–,"inconclusive: 7.94 µM [inhibitor, partial curve]"

SMILES,"activity change, negative = inhibition",Potency
Cc1cccc(Nc2nc(NCc3ccco3)nc(N)c2[N+](=O)[O-])c1,–,"inconclusive: 2.24 µM [inhibitor, single point]"
Cc1cc(C)c2nc(/N=C(\N)NC(=O)c3ccccc3)nc(C)c2c1,inactive: -6.84%,–
Cc1cccc(C(=O)Nc2ccc3ccccc3c2)c1,–,"inconclusive: 7.94 µM [inhibitor, partial curve]"
Cc1cc(C)n(-c2ccc(C(=O)Nc3cc(S(=O)(=O)N(C)C)ccc3Cl)cc2)n1,–,"inconclusive: 11.2 µM [inhibitor, partial curve]"
COc1ccc2c(c1OC)C(=O)N1c3ccccc3C(=O)N(c3ccccc3)C21 (stereo not given),–,"inconclusive: 10 µM [inhibitor, partial curve]"
Cc1c(C(=O)Nc2ccccc2)cnn1-c1ccccc1,inactive: -3.25%,–
Cc1nn(-c2ccccc2)c(Cl)c1C(=O)OCC(=O)N(C)c1c(N)n(Cc2ccccc2)c(=O)[nH]c1=O,–,"inconclusive: 14.1 µM [inhibitor, single point]"
CC(C)C(=O)N1CCN(c2ccc(NC(=O)c3cccs3)cc2Cl)CC1,–,active: 10 µM
CCCn1nc([N+](=O)[O-])c(C(C#N)c2nc3ccccc3s2)c(Cl)c1=O (stereo not given),–,"inconclusive: 15.8 µM [inhibitor, partial curve]"
O=C(Nc1ncnc2sc3c(c12)CCCCC3)c1ccccc1,–,"inconclusive: 25.1 µM [inhibitor, single point]"
COc1cc(NCc2ccccc2)c2ncn(C(C)C)c2c1,–,active: 10 µM
COc1ccc(NC(=O)CCCn2c(=O)c3sccc3n(Cc3ccc(C)cc3C)c2=O)cc1,–,"inconclusive: 31.6 µM [inhibitor, single point]"
COc1ccc(/C=N/NC(=O)CSc2ccccn2)cc1OC,inactive: 0.611%,–
N#Cc1cnn(-c2ncnc3sc(-c4ccccc4)cc23)c1N,–,"inconclusive: 2.82 µM [inhibitor, full curve]"
CCOc1ccc(C(=O)CC(C(=O)O)N2CCCCC2)cc1 (stereo not given),–,"inconclusive: 12.6 µM [inhibitor, single point]"
CCCn1c(CCC(=O)O)nc2cc(S(=O)(=O)N3CCCC3)ccc21,–,"inconclusive: 3.16 µM [inhibitor, single point]"
CCn1cc(SCC(=O)NC2CCCC2)c2ccccc21,inactive: -21%,–
COc1ccc(F)c(CN(C)CC2CCCN(CCc3ccc(F)cc3)C2)c1 (stereo not given),–,"inconclusive: 10 µM [inhibitor, partial curve]"
Cc1ccc(-n2c(C)c(C)c3c(NCCCO)ncnc32)cc1,–,"inconclusive: 15.8 µM [inhibitor, partial curve]"
CN(C)CCNC(=O)c1ccc2c(c1)N(Cc1ccc(F)cc1)CCS2,–,"inconclusive: 12.6 µM [inhibitor, single point]"
Cn1c(=O)c(NC2CCCCC2)c2c3c(cccc31)C(=O)c1ccccc1-2,–,"inconclusive: 31.6 µM [inhibitor, single point]"
COc1ccccc1C(=O)NC(=S)Nc1ccccc1N1CCCCC1,–,"inconclusive: 22.4 µM [inhibitor, single point]"
